Data taken from the supplement of paper PMC3334620.
Whole data set: some 33,000 sequences, median “E-score (-0.5 to 0.5)” near -0.012, cut for the highest 2% near 0.29. The list shows a part of the results.

Biological target: T1, Ybr033w (UniProt P38073)
T1 sequence: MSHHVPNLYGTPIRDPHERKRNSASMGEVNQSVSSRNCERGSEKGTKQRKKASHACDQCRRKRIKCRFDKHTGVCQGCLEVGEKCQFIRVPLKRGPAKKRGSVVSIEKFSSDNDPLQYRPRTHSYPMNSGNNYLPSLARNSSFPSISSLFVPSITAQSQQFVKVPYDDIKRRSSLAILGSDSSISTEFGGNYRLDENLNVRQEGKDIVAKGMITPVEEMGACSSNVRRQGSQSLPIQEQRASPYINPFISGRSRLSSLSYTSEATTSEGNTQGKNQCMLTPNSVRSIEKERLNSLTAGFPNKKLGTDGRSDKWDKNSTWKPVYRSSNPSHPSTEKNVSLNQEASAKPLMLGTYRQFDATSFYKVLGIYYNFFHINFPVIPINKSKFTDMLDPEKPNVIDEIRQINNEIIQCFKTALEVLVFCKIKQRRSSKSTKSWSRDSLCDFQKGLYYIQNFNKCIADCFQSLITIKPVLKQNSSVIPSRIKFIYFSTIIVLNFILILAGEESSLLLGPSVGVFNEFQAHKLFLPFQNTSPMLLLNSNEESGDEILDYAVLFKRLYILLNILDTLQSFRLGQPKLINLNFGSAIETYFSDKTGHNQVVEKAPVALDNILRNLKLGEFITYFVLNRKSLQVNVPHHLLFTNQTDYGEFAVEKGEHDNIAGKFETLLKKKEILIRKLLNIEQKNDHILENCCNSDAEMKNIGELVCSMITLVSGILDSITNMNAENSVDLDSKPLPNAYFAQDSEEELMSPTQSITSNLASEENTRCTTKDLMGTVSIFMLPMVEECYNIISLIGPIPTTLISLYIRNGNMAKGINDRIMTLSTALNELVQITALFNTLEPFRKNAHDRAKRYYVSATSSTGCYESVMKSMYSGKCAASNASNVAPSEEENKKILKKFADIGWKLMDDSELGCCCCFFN
Experiment: PBM E-score (8-mer binding enrichment) (E-score (-0.5 to 0.5)); higher = stronger / more preferred TF binding; most listed sequences are background and not binding sites
Settings: protein concentration: 200 nM; construct: GST-full length
Outline: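 Bound GST-tagged yeast transcription factors, applied at about 100-200 nM to double-stranded universal all-10-mer Agilent arrays, were detected with fluorescent anti-GST. Scans were normalised with masliner. A modified Wilcoxon-Mann-Whitney statistic, the E-score, was assigned to each ungapped eight-base word pooled with its reverse complement by the Universal PBM Analysis Suite.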

Row | Sequence | PBM E-score
1 | AGTAATCA | 0.0803
2 | ATCCGTTA | 0.282
3 | AGGATGCA | -0.0489
4 | GAACGCAC | 0.0399
5 | ACGTCCTA | -0.0749
6 | CAAAGACA | 0.0541
7 | TATTCGGA | 0.248
8 | TGGGCGAA | -0.00265
9 | CGACCGAC | -0.109
10 | GAACCGGA | 0.152
11 | CGCTGGGC | -0.235
12 | ACAAATAA | 0.265
13 | CCACTCGC | -0.125
14 | CAGTCGGG | -0.172
15 | TACGCACA | 0.0143
16 | GGACCTGA | -0.203
17 | AAAGCTAA | 0.0966
18 | ATGCAGGG | -0.108
19 | AGGTCCGC | -0.352
20 | CGATCGCA | 0.0381
21 | CTCTGAAC | -0.0896
22 | CGGATGAC | -0.124
23 | CGCATTGA | 0.0944
24 | ATTCAGGG | -0.0016
25 | CGTATTAC | 0.114

Row | Sequence | PBM E-score
26 | GAGTTTAA | 0.142
27 | GACCCTAA | -0.03
28 | CGCTTGAC | -0.141
29 | AGGGGGAA | -0.298
30 | AATCTAGT | 0.214
31 | ACTTCTTC | 0.149
32 | GAGCAAGC | -0.255
33 | AACTACAG | 0.112
34 | CCTGCTGA | 0.101
35 | CCCCTCTA | -0.246
36 | AAGGTCAC | -0.0509
37 | TCAGAAAA | 0.0198
38 | TACGGTGA | 0.0707
39 | CGCCCTCC | -0.299
40 | AGCGGGCC | -0.242
41 | CTCTGCCC | -0.108
42 | AAGGACTA | -0.0585
43 | GCCAGGGC | -0.357
44 | CGTTCACA | -0.031
45 | CTCAGCAG | -0.134
46 | AAGGTTGA | 0.205
47 | CCGAACAA | 0.0727
48 | CACCAGGA | 0.0347
49 | CCCACTCG | -0.167
50 | ACCTTTCC | 0.0278

Row | Sequence | PBM E-score
51 | ATTAGTTC | 0.224
52 | CGAGGGGC | -0.388
53 | CGCAGGAC | 0.05
54 | CATATATG | 0.0464
55 | TAGGCTGA | -0.0515
56 | AAAAGTTG | 0.133
57 | TAGGGCCA | -0.121
58 | ACCGTCAG | -0.0456
59 | CAAACTCA | 0.00685
60 | CGCCAATC | -0.0599
61 | CGCGACTA | -0.0358
62 | GGCCCTGA | -0.176
63 | TATGTTAA | 0.238
64 | CGCTCTAA | -0.0524
65 | GACGAGAC | -0.0005
66 | AAAAGACT | -0.106
67 | AATGTCAT | 0.153
68 | TACTTGGA | 0.167
69 | ATACAGCA | 0.146
70 | CAGCCGGG | -0.173
71 | GTGACGGA | -0.0485
72 | ACTAGCGG | -0.0103
73 | GGTGAAGA | -0.0754
74 | ATCGGACG | -0.0124
75 | CAAGGAAA | 0.162

Row | Sequence | PBM E-score
76 | TAGAGTCA | -0.252
77 | GTTTTCCA | 0.215
78 | ATGCTCCC | -0.164
79 | CATCGTCG | -0.242
80 | ACTGCACA | 0.0403
81 | ATGCCCAT | -0.171
82 | CGAAGACC | -0.00496
83 | CTTTGAGC | -0.168
84 | ATCCCCGG | -0.169
85 | CTCTTAAG | -0.0228
86 | AGTCGCCA | -0.275
87 | ATCCTGCG | -0.129
88 | CATTATTC | 0.213
89 | TCCTTCCA | -0.0913
90 | GGGAAGAA | 0.256
91 | ATAGGTCG | -0.11
92 | ACACAAGG | -0.046
93 | AGACAGCT | -0.131
94 | AGTTAATA | 0.336
95 | GCACCCGC | -0.169
96 | CTCACCGC | -0.024
97 | CGAATCGC | -0.0798
98 | AGGGTGAT | -0.055
99 | CGCAAAAC | 0.0887
100 | ACTGCACT | 0.0301

Row | Sequence | PBM E-score
101 | CACGAATG | 0.0892
102 | CATGACCG | -0.335
103 | CTTGAGAC | -0.126
104 | ATAGGTAA | 0.132
105 | AGACCTCT | -0.13
106 | ACGCCTTC | -0.228
107 | CTCATAAC | 0.0384
108 | ATGACAAT | 0.293
109 | ACCGGCGT | -0.0665
110 | ATGAATGC | 0.045
111 | TCGCTACA | -0.212
112 | CCACCAAC | -0.0505
113 | TAAAGACA | 0.0462
114 | GAATGCTC | 0.0722
115 | CGCCTCTC | -0.423
116 | CAGGCTGA | -0.237
117 | ACGAGCTG | 0.00104
118 | CCATAGGC | -0.298
119 | CTTCTGAC | 0.0292
120 | CAAGCGCA | 0.175
121 | ATCACAGG | -0.0736
122 | ACATGAAC | -0.00232
123 | TGCTCCAA | -0.0168
124 | GTATTCAC | 0.157
125 | TCTCGTAA | 0.0727

Row | Sequence | PBM E-score
126 | ATGCTACG | 0.0843
127 | AAACGTAC | 0.21
128 | CCCAGTCG | -0.28
129 | GTTCTGCA | -0.173
130 | ATACGTAG | 0.134
131 | GAGCATAA | 0.101
132 | AAATTTAA | 0.29
133 | AATTTCTG | 0.128
134 | ACTCAGCC | -0.224
135 | CCGTGCTA | -0.234
136 | ATGATACA | 0.185
137 | GGCGTAAC | -0.184
138 | AAATACTT | 0.34
139 | ACATACGC | 0.00485
140 | TAACTAGA | 0.262
141 | AATAATGG | 0.162
142 | TGTAAGAA | 0.211
143 | CAATCACG | 0.122
144 | ATAAACAG | 0.0706
145 | GGTAGATA | 0.148
146 | CGGTTATC | -0.136
147 | ACTGAATA | 0.153
148 | AACCCGCT | -0.139
149 | CTTAGGTA | 0.0299
150 | CGAGGTAA | -0.0143

Row | Sequence | PBM E-score
151 | TCCGGCAA | 0.124
152 | AGAGACCA | -0.0563
153 | AACGACTA | -0.0272
154 | GCCCCCCA | -0.3
155 | ATGCTGCA | 0.0833
156 | ACTTTTCT | 0.104
157 | GCTACAGC | -0.0479
158 | CACACAAC | 0.0707
159 | ACTGCCGA | -0.0418
160 | AAACAGTT | 0.117
161 | GATTGGCC | -0.124
162 | ACGCACTC | -0.107
163 | AAACTTGA | 0.175
164 | AGTAGCAT | 0.159
165 | AAGACTCA | -0.108
166 | AGTTGCAA | -0.00435
167 | CTCCAATC | 0.147
168 | ATATTGTC | 0.215
169 | CAGACACG | -0.15
170 | GCCCAACC | -0.022
171 | AACGTGTG | -0.0995
172 | ATGCTAAG | -0.119
